Among all 48,000 compounds or so, about 450 (0.94%) were called active. Inconclusive results, whose numbers are uncertain, are shown with a selection of clear calls. Calls come from the whole dose curve; as a rule, active = well fitted inhibition curve with a large enough effect; inconclusive = small, poorly fitted or top-dose-only effect; inactive = no such curve, though single readings can be large or run the other way. Where the call is inconclusive, the potency comes from a doubtful curve fit.
Assay: Primary qHTS for Identification of Small Molecule Inhibitors of Huntingtin Promoter Activity; note: nearly all actives have a fitted effect of over 50% in size
Conditions: HEK293 HTT promoter firefly luciferase reporter (activity 0% = vehicle and -100% = no light), 24 h; activity change, negative = inhibition: at 57.5 µM (top of the series)
In short: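 Quantitative HTS used concentration series of up to 57.5 uM final on HEK293 luciferase reporter cells, 24 h at 37 degrees C. Readout was Dual-Glo firefly luminescence.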
Potency is the fitted concentration of half-maximal effect; tags give direction and shape of the fitted curve.

SMILES | Potency | activity change, negative = inhibition
Cc1cccc(C)c1Nc1c(-c2ccccc2F)nc2cccc(C)n12 | inconclusive: 25.1 µM [inhibitor, single point] | –
CCCCN(CC)CCNC(=O)c1c(C)oc2ncnc(N3CCOCC3)c12 | – | inactive: 8.24%
CCC1(C)CC(=O)c2c(ccc3oc(C(=O)NCc4ccccc4)c(C)c23)O1 (stereo not drawn) | – | inactive: 18.3%
Cc1ccc2oc3c(c(=O)c2c1)C(c1ccc(O)cc1)N(Cc1ccc2c(c1)OCO2)C3=O (stereo not drawn) | inconclusive: 17.8 µM [inhibitor, single point] | –
COc1ccc(-c2[nH]c(-c3cccc(OC)c3)nc2SCC(=O)Nc2ccc3c(c2)OCO3)cc1 | inconclusive: 20 µM [inhibitor, partial curve, poor fit] | –
CCN(c1cccc(C)c1)S(=O)(=O)c1ccc(N2CCCCS2(=O)=O)cc1 | inconclusive: 39.8 µM [inhibitor, single point] | –
Cc1ccc(NC(=O)c2cc(S(=O)(=O)N(C)C3CCCCC3)ccc2F)cc1C | inconclusive: 28.2 µM [inhibitor, single point] | –
COc1ccccc1C(=O)Oc1c(Sc2ccccc2)c(C)nn1C(C)(C)C | inconclusive: 31.6 µM [inhibitor, partial curve, poor fit] | –
O=C(Nc1ccc(C(=O)N2CCN(c3cccc(Cl)c3)CC2)cc1)c1nsc2ccccc12 | inconclusive: 22.4 µM [inhibitor, single point] | –
CCc1nnc(NC(=O)c2nc(S(=O)(=O)Cc3ccc(C)cc3)ncc2Cl)s1 | inconclusive: 35.5 µM [inhibitor, single point] | –
CCC(=O)N1CCc2cc(S(=O)(=O)NC(C(=O)NCCc3ccccc3)C(C)C)ccc21 (stereo not drawn) | inconclusive: 0.158 µM [inhibitor, partial curve, poor fit] | –
Cc1c(Cl)cccc1NC(=O)c1cccc(NC(=O)N2CCSc3ncccc32)c1 | inconclusive: 12.6 µM [inhibitor, partial curve] | –
CCc1ccc(C(=O)c2cn(CC(=O)Nc3cccc(OC)c3)c3ccc(OC)cc3c2=O)cc1 | inconclusive: 17.8 µM [inhibitor, partial curve, poor fit] | –
COc1ccccc1N1CCN(c2ncnc3c2cnn3-c2cc(Cl)ccc2C)CC1 | inconclusive: 5.01 µM [inhibitor, single point] | –
Cc1ccc(C(=O)N2c3ccc(C)cc3C(C)(c3ccccc3)CC2(C)C)cc1 (stereo not drawn) | inconclusive: 39.8 µM [inhibitor, single point] | –
Cc1ccc(CSc2nc3ccc(NC(=O)COc4ccccc4)cc3s2)cc1 | – | inactive: -0.242%
CCOC(=O)c1ccc(N2C(=O)c3[nH]nc(-c4ccc(C)cc4)c3C2c2cccc(F)c2)cc1 (stereo not drawn) | inconclusive: 20 µM [inhibitor, partial curve, poor fit] | –
CC(=O)N[C@@H](CO)C(=O)N[C@@H](CC(=O)O)C(=O)N[C@@H](CCCCN)C(=O)N1CCC[C@H]1C(=O)O | – | inactive: 5.88%
Cn1nc(C(=O)NCc2ccc(Cl)cc2)c2c1-c1ccccc1S(=O)(=O)C2 | inconclusive: 22.4 µM [inhibitor, partial curve, poor fit] | –
CCCCCn1c(=O)[nH]c2cc(C(=O)Nc3cc(C)cc(C)c3)ccc2c1=O | – | inactive: -2.81%

SMILES | Potency | activity change, negative = inhibition
Cc1cccc(N2C(=O)N(CC(=O)C(C)(C)C)c3ccccc3S2(=O)=O)c1C | inconclusive: 31.6 µM [inhibitor, single point] | –
COc1ccc(Cl)cc1NC(=O)c1cc(S(=O)(=O)NC2CCCCCC2)ccc1F | inconclusive: 39.8 µM [inhibitor, single point] | –
Cc1cccc(NC(=O)CSc2cn(CC(=O)N3CCCCCC3)c3ccccc23)c1 | – | inactive: -10.9%
CCc1ccc(Sc2cc(C(=O)NCc3cccc(OC)c3)c3ccccc3n2)cc1 | inconclusive: 39.8 µM [inhibitor, single point] | –
COc1ccc(C2NC(=O)N(C)C3=C2C(=O)N(c2cccc(Cl)c2)C3)cc1 (stereo not drawn) | – | inactive: -15.1%
COc1ccc(CNC(=O)c2ccc(N3CCCC3)c(NC(=O)NCc3ccc(C)cc3)c2)cc1 | inconclusive: 31.6 µM [inhibitor, partial curve, poor fit] | –
O=C(Cc1ccccc1)N(Cc1cccnc1)c1nc2c(F)cc(F)cc2s1 | inconclusive: 11.2 µM [inhibitor, partial curve, poor fit] | –
O=C(Nc1cc(Cl)cc(Cl)c1)c1ccc(F)c(S(=O)(=O)N2CCc3ccccc32)c1 | inconclusive: 35.5 µM [inhibitor, single point] | –
COc1ccc(CCNC(=O)c2ccc3c(c2)N(Cc2c(F)cccc2Cl)C(=O)CS3)cc1OC | inconclusive: 31.6 µM [inhibitor, partial curve, poor fit] | –
COc1ccc(NC(=O)C(C)n2nc(-c3ccc(C)c(C)c3)ccc2=O)cc1OC (stereo not drawn) | inconclusive: 17.8 µM [inhibitor, single point] | –
COc1cccc(NC(=O)CSC2=Nc3ccccc3C3=NC(CC(=O)NC4CCCCC4)C(=O)N23)c1 (stereo not drawn) | inconclusive: 39.8 µM [inhibitor, single point] | –
Cc1ccc(-n2c(SCc3cccc(F)c3)nc3[nH]ncc3c2=O)cc1C | inconclusive: 39.8 µM [inhibitor, single point] | –
COc1cc(OC)c(OC)cc1/C=C/c1nc2cc3ccccc3cc2c(=O)n1-c1ccc(F)cc1F | inconclusive: 17.8 µM [inhibitor, partial curve, poor fit] | –
CC(=O)c1ccc(N2CCN(c3ccc(NC(=O)c4ccc(F)cc4)cc3C(=O)O)CC2)cc1 | – | inactive: -13.6%
CCc1ccc(CNC(=O)c2ccc(NC(=O)N3CC(C)Sc4ccccc43)cc2)cc1 (stereo not drawn) | inconclusive: 25.1 µM [inhibitor, partial curve, poor fit] | –
CC(C)(C)c1ccc(C(=O)NCC(c2cccs2)S(=O)(=O)c2ccccc2)cc1 (stereo not drawn) | inconclusive: 39.8 µM [inhibitor, single point] | –
CCn1c(=O)sc2cc(NS(=O)(=O)c3ccc(F)c(C)c3)ccc21 | active: 14.1 µM | –
COc1ccc(C2c3c(n(C)c4ccccc34)C(=O)N2CC(=O)Nc2ccc(C)c(Cl)c2)cc1 (stereo not drawn) | inconclusive: 31.6 µM [inhibitor, partial curve, poor fit] | –
COc1ccc(CCN2CCC(Nc3nc4ccccc4n3Cc3ccc(F)cc3)CC2)cc1 | inconclusive: 25.1 µM [inhibitor, single point] | –
CCN(C(=O)C1CCC(CNS(=O)(=O)c2cccc3nsnc23)CC1)c1ccc(C)c(C)c1 (stereo not drawn) | inconclusive: 31.6 µM [inhibitor, partial curve] | –

SMILES | Potency | activity change, negative = inhibition
Cc1cccc(C(=O)Nc2sc3c(c2C(=O)N2CCCCC2)CCC(C)C3)c1 (stereo not drawn) | inconclusive: 35.5 µM [inhibitor, partial curve, poor fit] | –
O=C(CCc1cn(Cc2ccc(F)cc2)c2ccccc12)NCCc1ccc(Cl)cc1 | inconclusive: 28.2 µM [inhibitor, single point] | –
Cc1ccc(C(=O)CC2(O)C(=O)N(Cc3ccccc3F)c3ccccc32)cc1 (stereo not drawn) | inconclusive: 39.8 µM [inhibitor, single point] | –
CCOc1ccc(CCNc2ncnc3onc(-c4ccc(Cl)cc4)c23)cc1OCC | inconclusive: 28.2 µM [inhibitor, partial curve, poor fit] | –
C[C@@]12C(=O)OC(=O)[C@]1(C)C1CCC2O1 | inconclusive: 3.98 µM [inhibitor, full curve] | –
COc1ccc(NC(=O)C(c2ccc(C)cc2)N(C)C(=O)/C=C\c2ccc3c(c2)OCO3)cc1 (stereo not drawn) | inconclusive: 39.8 µM [inhibitor, single point] | –
COc1cccc(C2=C(C(C)=O)Sc3nncn3N2C(C)=O)c1 | – | inactive: -18.2%
O=C(Cn1c(SCc2cccc(F)c2)nc2cccnc21)Nc1ccc(F)c(Cl)c1 | inconclusive: 17.8 µM [inhibitor, single point] | –
CC(C)(C)c1ccc(Cn2c(Cc3ccccc3)nc3ccccc32)cc1 | inconclusive: 22.4 µM [inhibitor, partial curve, poor fit] | –
CCOc1ccc(-c2nonc2NC(=O)c2oc3ccc(F)cc3c2C)cc1 | inconclusive: 8.91 µM [inhibitor, partial curve] | –
CC(=O)Nc1ccc(Nc2ncnc3c2c(-c2ccccc2)cn3-c2ccccc2)cc1 | inconclusive: 35.5 µM [inhibitor, single point] | –
O=C(Nc1ccc(F)c(Cl)c1)N1CCN(C(=O)c2nsc3ccccc23)CC1 | inconclusive: 28.2 µM [inhibitor, single point] | –
CCn1c(C(=O)N2CCC(C(=O)N3CCN(c4cccc(C)c4C)CC3)CC2)cc2sccc21 | inconclusive: 15.8 µM [inhibitor, partial curve, poor fit] | –
CCOc1ccc2nc(N3CCN(C(=O)CS(=O)(=O)c4ccc(F)cc4)CC3)sc2c1 | inconclusive: 39.8 µM [inhibitor, single point] | –
O=C(C1CCCN(S(=O)(=O)c2cccs2)C1)N1CCN(c2cccc(Cl)c2)CC1 (stereo not drawn) | inconclusive: 35.5 µM [inhibitor, single point] | –
Cc1ccc(C)c(N2CCN(c3ncnc4c3nc3n4CCCCC3)CC2)c1 | inconclusive: 39.8 µM [inhibitor, single point] | –
Cc1ccc(NC(=O)c2ccc(NC(=O)N3CCSc4ncccc43)cc2)cc1Cl | inconclusive: 25.1 µM [inhibitor, single point] | –
O=C(Cn1cc(S(=O)(=O)Cc2ccc(F)cc2)c2ccccc21)NCCc1ccccc1 | inconclusive: 28.2 µM [inhibitor, single point] | –

Source: PubChem BioAssay AID1508623 (National Center for Advancing Translational Sciences (NCATS), 2021)
